For 112 molecules, z-score results are on record in PubChem BioAssay AID488969 (Vanderbilt High Throughput Screening Facility, 2010).

Over roughly 110,000 compounds, “z-score” has its median near -0.1; the highest 2% begin near 2. Some of the results follow.

For this assay, the target named is Metabotropic glutamate receptor 8 (Rattus norvegicus) (UniProt P70579). In words: rat mGluR8 modulators via GIRK flux, primary screen, cell-based, thallium flux, HTS (AID 488969). Particulars: HEK293 rat mGluR8, GIRK (G protein-gated inwardly rectifying potassium channel) thallium flux, FluoZin2; at 10 µM; stronger effect = higher value; submaximal glutamate (EC20) added with thallium.
UniProt P70579, sequence (P70579 whole entry, looked up): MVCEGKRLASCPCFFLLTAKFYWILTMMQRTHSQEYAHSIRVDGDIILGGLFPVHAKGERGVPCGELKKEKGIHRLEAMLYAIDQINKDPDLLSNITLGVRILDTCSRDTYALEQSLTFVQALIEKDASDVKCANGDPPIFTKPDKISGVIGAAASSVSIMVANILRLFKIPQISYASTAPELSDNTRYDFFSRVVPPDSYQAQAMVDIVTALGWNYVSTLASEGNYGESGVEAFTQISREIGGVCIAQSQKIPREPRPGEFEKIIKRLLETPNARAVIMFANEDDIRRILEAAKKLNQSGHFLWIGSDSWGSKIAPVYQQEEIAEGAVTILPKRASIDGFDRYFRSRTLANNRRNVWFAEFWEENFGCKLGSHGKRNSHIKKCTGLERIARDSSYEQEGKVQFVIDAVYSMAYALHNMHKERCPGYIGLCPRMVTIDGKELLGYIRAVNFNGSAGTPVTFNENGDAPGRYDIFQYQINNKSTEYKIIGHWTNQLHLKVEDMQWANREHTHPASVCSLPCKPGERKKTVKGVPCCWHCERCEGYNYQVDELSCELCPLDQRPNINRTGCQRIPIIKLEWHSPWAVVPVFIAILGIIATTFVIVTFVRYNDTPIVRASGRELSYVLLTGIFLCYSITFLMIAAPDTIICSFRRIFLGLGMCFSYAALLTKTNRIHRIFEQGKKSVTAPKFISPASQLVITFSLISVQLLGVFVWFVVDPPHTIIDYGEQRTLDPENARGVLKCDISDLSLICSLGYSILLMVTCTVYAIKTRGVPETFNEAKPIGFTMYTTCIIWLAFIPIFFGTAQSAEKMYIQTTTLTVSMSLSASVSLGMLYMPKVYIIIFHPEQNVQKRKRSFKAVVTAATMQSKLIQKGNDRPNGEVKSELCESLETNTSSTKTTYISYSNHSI
In turn, `CCn1cc(C(=O)N2CCn3c(nc4ccccc43)C2)c(=O)c2ccc(C)nc21` yielded a z-score of -0.443.
`O=C(NCc1ccc(F)cc1)C1CCCN(S(=O)(=O)c2cccc3nsnc23)C1` (configuration not stated) gave a z-score of 0.929.
The molecule `O=C1NN(c2ccc(F)cc2)C(=O)/C1=C\C=C\c1ccco1` returned a z-score of -0.607.
`COC(=O)c1ccc(NC(=S)NCCC2=CCCCC2)cc1` came in with a z-score of 0.0546.
Take `CCOCCCn1c(SCC(=O)Nc2ccc(C(N)=O)cc2)nc2ccccc2c1=O`: the z-score stood at 0.766.
`O=C1CN2C(=N1)N(Cc1ccccc1)c1ccccc12` registered a z-score of -0.243.
`C=CCn1c(N)c(C(=O)NCc2ccco2)sc1=S` yielded a z-score of 0.688.
The molecule `COc1ccc(S(=O)(=O)N(C)CC(=O)NCc2cccnc2)cc1` returned a z-score of -0.0918.
The molecule `CC(C)(C)c1ccc(OC(=O)Cn2c(C(F)(F)F)nc3ccccc32)cc1` showed a z-score of 1.01.
Turning to `CCCCC(=O)Nc1ccc(F)c(Cl)c1`, the z-score amounted to 0.611.
For `CCOC(=O)N1CCC(c2cc(=O)n3[nH]cc(C(=O)OC)c3n2)CC1`, the z-score is -0.352.
For the molecule `O=C(NCCCc1ccccc1)c1ccc(Br)o1`, the z-score turned out to be 0.526.
Molecule `CC(C)C(=O)Nc1nnc(CSCc2ccccc2F)s1` gave a z-score of -0.45.
Then `Cn1ccnc1SCC(=O)NC1CC1`, with -0.316; and `Cc1c(C(=O)C(=O)N2c3ccc(F)cc3CCC2C)c2ccccc2n1C` (configuration not stated), with -0.104; and `CCC1CCc2c([nH]c3ccccc3c2=O)O1` (configuration not stated), with -0.126.
`COc1ccc(Cl)cc1NC(=O)COC(=O)C(CC(C)C)N1C(=O)C2CC=CCC2C1=O` (configuration not stated) displayed a z-score of -0.318.
Then `Oc1ccc(Cl)cc1/C=N/c1nc2ccccc2[nH]1`, with 1.02.
`C/C(=C\C(=O)c1ccccc1)Nc1cccc(O)c1` registered a z-score of -0.407.
In the case of `CC(C)C(c1nnnn1C1CCCCC1)N1CCCc2ccccc21` (configuration not stated) it was -1.25; in that of `Cn1nc(C(F)(F)F)c(/C=N/OC(=O)c2ccccc2)c1SCc1ccc(Cl)cc1`, -0.325.
Consider `O=C(Nc1ccc(Cl)cn1)c1ccc(-c2cc(Cl)ccc2Cl)o1`, for which the z-score was -0.144.
`Cc1ccc(C(=O)COC(=O)CN2C(=O)C3C4CCC(C4)C3C2=O)cc1[N+](=O)[O-]` (configuration not stated) came in with a z-score of -0.0994.
Molecule `CCCOc1ccc(NC(=O)C(=O)NCCCn2ccnc2)cc1` came in with a z-score of -0.242.
For `COC(=O)c1ccc(SCC(=O)N2CCC(C)CC2)c([N+](=O)[O-])c1`, the z-score was -1.09.
As to `COc1ccccc1OCC(=O)NNC(=O)c1cnccn1`, the z-score came to 0.0267.
The molecule `Cc1cc(C)nc(-n2nc(C)cc2NC(=O)CNC2CCCCC2)n1` displayed a z-score of 0.0283.
`COc1ccc(-c2c(C)nn(-c3ccccc3)c2N)cc1OC` showed a z-score of -0.0127.
Molecule `O=C(CSc1nnnn1-c1ccccc1)Nc1ccc(Cl)cc1` registered a z-score of -0.377.
`O=C(CSC1c2ccccc2C(=O)N1c1ccccc1)N1CCOCC1` (configuration not stated) displayed a z-score of 0.895.
In the case of `Nc1cc(C(=O)OCC(=O)NCc2ccco2)ccc1Cl` it was 0.0196; in that of `CCCn1c(NCc2cccc(OC)c2O)nc2ccccc21`, 0.637.
`Cc1cccc(C)c1NC(=O)CSc1nc(-c2ccco2)cc(C(F)(F)F)n1` yielded a z-score of 0.033.
`CCCN(CCC)C(=O)C1c2ccccc2Oc2ccccc21` had a z-score of -1.23.
For the molecule `Cc1cccc(N=C(N2CCOCC2)P(=O)(N2CCOCC2)N2CCOCC2)c1`, the z-score came out at 0.413.
Turning to `CCn1c(C(=O)Nc2ccsc2C(=O)OC)cc2sc(Cl)cc21`, the z-score was -0.142.
In turn, `Cc1ccccc1-n1c(SCC(=O)N2CCOCC2)nc(O)cc1=O` came in with a z-score of 0.189.
`O=C(Cn1c(O)c(/C=C2\C=Nc3ccccc32)sc1=O)Nc1ccc2c(c1)OCO2` yielded a z-score of 0.0985.
For `COc1ccc(OCCSc2nnc3c(Cl)cc(Cl)cn23)cc1`, the z-score is -0.0313.
Consider `COc1ccccc1-c1cc(C(=O)Nc2cc(C)nn2-c2ccccc2)no1`, for which the z-score is -0.127.
Turning to `O=C1CCc2nc3sc4c(c3c(=O)n2N1)CCCC4`, the z-score worked out at 0.641.
Then `Cn1nc(-c2ccc(Cl)cc2)c2cc(C(=O)NCc3ccco3)sc21`, with -0.333; and `Cc1ccc(C23CC4CC(CC(C(=O)N5CCOCC5)(C4)C2)C3)cc1`, with 0.66.
With `CC(=O)Oc1ccc2nc(-c3cccs3)oc(=O)c2c1`, the z-score is -1.1.
`Cn1c(SCC(=O)n2c3c(c4ccccc42)CCCC3)nnc1-c1ccccc1` showed a z-score of -0.201.
`Cc1ccc(C(=O)Oc2coc(CSc3nnc(NC(=O)c4cccs4)s3)cc2=O)cc1C` had a z-score of 0.268.
`CN(C)CCCn1c(-c2ccccc2)nc(=S)c2c1CCCC2` yielded a z-score of -0.077.
As for `O=C1c2ccccc2C(Nc2ccc3c(c2)OCO3)N1Cc1ccc2c(c1)OCO2` (configuration not stated), the z-score was -0.761.
For the molecule `CC12CCC(C(=O)NCCCn3ccnc3)(OC1=O)C2(C)C` (configuration not stated), the z-score turned out to be 0.102.
In the case of `Cc1ccc(S(=O)(=O)N2CCCC(C(=O)NC3=NCCS3)C2)cc1` (configuration not stated) it was 0.373; in that of `COc1ccc(OC)c(C2C3=C(CCCC3=O)Nc3c2c(=O)n(C)c(=O)n3C)c1` (configuration not stated), -0.296.
For the molecule `CC(=O)c1cccc(NC(=O)C2CC(c3ccc(F)cc3)=NO2)c1` (configuration not stated), the z-score was -0.0875.
`CCOC(=O)c1ccc(-n2c(C)ccc2C)cc1` returned a z-score of -0.201.
`CCOC(=O)C1=C(C)NC(=O)NC1C1CC=CCC1` (configuration not stated) yielded a z-score of -0.513.
Then `O=C(COc1ccccc1)NCC(=O)Nc1cccc2ccccc12`, with 0.0758.
Turning to `COc1ccc(-c2nn(-c3ccccc3)cc2C(=O)n2nnc3ccccc32)cc1`, the z-score is -0.272.
`CCCCCn1c(SCC(=O)OCC)nc2cc(C(=O)NCc3ccco3)ccc2c1=O` had a z-score of -0.374.
The molecule `c1ccc(Cc2nn3c(COc4ccccc4)nnc3s2)cc1` gave a z-score of -0.665.
`O=C(c1ccc(-c2nnc(-c3ccccc3)o2)cc1)N1CCCCCC1` yielded a z-score of 0.00936.
For the molecule `COc1ccc(OC2C(=O)N(Cc3ccc(F)cc3)C2c2ccc(OC)c(OC)c2)cc1` (configuration not stated), the z-score is -0.194.
`CC(C)CCNC(=O)CCC(=O)NNc1nc2ccccc2c2nc(-c3ccccc3)nn12`: the z-score amounted to 0.521.
Molecule `C/C(=N\Nc1ncc(Cl)cc1Cl)c1ccc(S(=O)(=O)NCc2ccco2)cc1` had a z-score of -0.286.
`CCCCCc1c(C)nc(SCC(=O)O)[nH]c1=O`: the z-score is 0.239.
For `Cn1c(SCC(=O)NCC2CCCO2)nnc1-c1ccc(S(=O)(=O)N2CCCC2)cc1` (configuration not stated), the z-score was -0.000704.
Consider `COc1ccc(Nc2oc(-c3ccccc3Cl)nc2C#N)cc1`, for which the z-score is -0.121.
`CCOC(=O)C1CCCN(C(=O)c2ccc(C)cc2O)C1` (configuration not stated): the z-score is -0.218.
In turn, `CCC(C)OC(=O)C(C)Oc1ccc(-c2ccccc2)cc1` (configuration not stated) returned a z-score of -0.427.
Then `CCNC(=O)CN(c1ccc(Cl)cc1)S(=O)(=O)c1ccccc1`, with 0.338; and `O=S1(=O)C=CC(N2CCOCC2)C1` (configuration not stated), with -0.0822.
With `O=C(Nc1ccccc1)N1CCN(c2ccccn2)CC1`, the z-score is -0.185.
In the case of `Cn1c(SCC(=O)c2ccccc2)nnc1-c1cccnc1` it was 0.0309.
In the case of `COc1ccc(C(C)C)cc1S(=O)(=O)Nc1ccccn1` it was 0.0145; in that of `FC(F)(F)c1cccc(Sc2nc(-c3ccccc3)nnc2C(F)(F)F)c1`, 0.0555.
As to `NC(=O)C1CNc2ccccc2O1` (configuration not stated), the z-score was found to be 2.79.
Take `CCOC(=O)c1[nH]c(COC(=O)CCOc2ccccc2OC)c(C(=O)OCC)c1C`: the z-score was -0.212.
`COc1cccc(N2CCN(C3CC(=O)N(c4ccc(F)c(Cl)c4)C3=O)CC2)c1` (configuration not stated) came in with a z-score of -0.0211.
As to `Cc1ccc(NC(=O)C2CCCN2S(=O)(=O)c2cccc3cccnc23)cc1F` (configuration not stated), the z-score came out at 2.9.
For the molecule `N#Cc1cccc(N=Cc2c(O)ccc3ccccc23)c1`, the z-score is -0.114.
As for `O=C(NC(Cc1ccc(F)cc1)C(=O)O)c1ccccc1` (configuration not stated), the z-score was -0.211.
`O=C(CSc1ccc(Cl)cc1)N1CCC(c2nc3ccccc3s2)CC1` came in with a z-score of 0.346.
In the case of `COc1ccccc1C(=O)NN1C(=O)C2C3C=CC(O3)C2C1=O` (configuration not stated) it was 0.0263; in that of `Cc1ccc(Sc2nc(-c3ccccc3)ccc2C#N)cc1`, -0.78; in that of `O=C(c1nc2ncccn2n1)N1CCN(c2ccc(F)cc2)CC1`, -0.106.
`O=C(Nc1ccc(F)cc1)c1ccccc1CC[N+](=O)[O-]`: the z-score stood at 0.596.
For the molecule `O=c1c2ccccc2nc(N/N=C/c2ccc(O)cc2)n1O`, the z-score was -0.0395.
For the molecule `N#Cc1c(N)nc2c(c1-c1ccco1)CCCCC2`, the z-score was 0.613.
`O=C(O)C1CC(=O)N(c2ccc3c(c2)OCCO3)C1` (configuration not stated): the z-score was -0.0902.
`CC(C)C(=O)Nc1ccc(C(=O)c2ccccc2)cc1`: the z-score is -0.299.
The molecule `Cc1ccc(NC(=O)Cn2c(=O)n(Cc3ccco3)c(=O)c3ccccc32)c(C)c1` had a z-score of -0.0769.
Then `COc1ccc(N(C(=O)c2ccn[nH]2)C(C(=O)NC(C)(C)C)c2ccc(F)cc2)cc1` (configuration not stated), with -0.126.
With `CCC1CCCCN1S(=O)(=O)c1ccc(S(=O)(=O)N(Cc2cccs2)C2CC2)cc1` (configuration not stated), the z-score is 0.569.
Turning to `Cc1ccc(NC(=S)NNC(=O)c2nn(C)c(C)c2Cl)cc1`, the z-score is -0.106.
Take `Cc1ccc(CNC(=O)C2CCCN2C(=O)NCc2ccccc2)cc1` (configuration not stated): the z-score was determined as 0.822.
With `COc1ccc(NC(=O)CN2C(=O)C(c3ccccc3)=NC23CCCCCC3)cc1`, the z-score was 0.328.
Consider `Cc1ccc(-n2c(=O)c3ccc(C(=O)NCc4ccco4)cc3n(Cc3ccccc3C#N)c2=O)cc1`, for which the z-score was -0.251.
Molecule `CCOC(=O)c1cc(-c2ccc(Cl)cc2)nc2onc(C)c12` displayed a z-score of -0.423.
Take `O=C(O/N=C1\CCCc2ccccc21)c1ccc(F)cc1`: the z-score was -0.0145.
Consider `CCOC(=O)/C=C/C(=O)N1CCc2ccccc21`, for which the z-score was -0.242.
Molecule `Nc1cc(=O)nc(SCc2ccccc2)n1Cc1ccco1` came in with a z-score of -1.15.
In turn, `Cc1nc(CCNC(=O)COc2ccccc2)cs1` showed a z-score of -0.509.
With `Cc1ccc(NC(=O)c2oc3ccccc3c2NC(=O)c2ccc3c(c2)OCO3)cc1`, the z-score is -0.28.
On to `Cc1csc(Sc2ccc([N+](=O)[O-])cc2C(=O)OCC(=O)NC2CCCC(C)C2C)n1` (configuration not stated), for which the z-score worked out at 0.0376.
The molecule `CSc1nc(Sc2ccccc2Cl)c2ccccc2n1` showed a z-score of -0.101.
As to `COc1ccc(NC(=O)COC(=O)c2ccc(OCc3c(C)noc3C)cc2)cc1OC`, the z-score turned out to be 0.107.
As for `CS/C(=C\[N+](=O)[O-])Nc1ccccc1`, the z-score is -0.76.
Turning to `CCc1nc(OCC(=O)c2ccccc2)c(C#N)c2c1COC(C)(C)C2`, the z-score is -0.0279.
Take `FC(F)(F)c1nc2nncn2c2c1CCCCC2`: the z-score was -0.228.
The molecule `COc1cc2c(cc1OC)CN(c1nc(CN3CCCCC3)nc3sc4c(c13)CCCC4)CC2` had a z-score of -0.149.
For `CC(=O)Nc1ccc(N(CC(O)Cn2c3ccccc3c3ccccc32)S(=O)(=O)c2ccc(C)cc2)cc1` (configuration not stated), the z-score is -0.159.
`Cc1[nH]n(-c2ccc([N+](=O)[O-])cc2)c(=O)c1C=NCCN1CCN(C(=O)c2ccc(F)cc2)CC1` showed a z-score of -0.563.
Molecule `COc1cccc(NS(=O)(=O)c2ccc3c(c2)CCCN3C(C)=O)c1` showed a z-score of 0.213.
Molecule `CC1=CC(C)(C)N(C(=O)CSc2nnc(C)s2)c2ccc(C)cc21` had a z-score of -0.304.
